Data from a collection of fitness landscapes (doi:10.1016/j.celrep.2020.107928).
Over roughly 81,000 sequences, “one-hybrid fitness for binding NBS DNA” has its median near -0.1; the highest 2% begin near 0.36. This is one part of the list.

B1: Caulobacter ParB omega fusion; a variant is named by its letters at X, in order, B8GW30 (parent)
chain: MESVVVGEPGMSEGRRGLGRGLSALLGEVDAAPAQAPGEQLGGSREAPIEILQRNPDQPRRTFREEDLEDLSNSIREKGVLQPILVRPSPDTAGEYQIVAGERAWRAAQRAGLKTVPIMVRELDDLAVLEIGIIENVQRADLNVLEEALSYKVLMEKFERTQENIAQTIGKSXSHVANXMRLLXLPDEVQSYLVSGELTAXHARAIAAAADPVALAKQIIEGGLSVRETEALARKAPNLSAGKSKGGRPPRVKDTDTQALESDLSSVLGLDVSIDHRGSTGTLTITYATLEQLDDLCNRLTRGI

Variants of: B1
Assay: one-hybrid fitness for binding NBS DNA (the Noc-binding site; scaled: cognate 1, non-cognate 0); higher = stronger binding
Conditions: with NBS DNA site
How it was run: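 Values were rescaled so that cognate is 1 and non-cognate is 0. Each is a fitness, the log change in a variant's read ratio to wild type from Illumina reads of plasmids before and after selection, with three replicate libraries pooled and variants under 10 reads dropped. Selection of the Caulobacter ParB libraries, four specificity codons randomised, used E. coli USO with a HIS3 reporter, site 19 bp from the promoter, on M9-minus-histidine with 0.1 mM IPTG and 5 mM 3-AT for 48 hours at 37°C.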

| Variant | one-hybrid fitness for binding NBS DNA |
| --- | --- |
| TCSL | ≤ 0.2 |
| GEAS | ≤ 0.2 |
| TSAV | ≤ 0.2 |
| SRFL | ≤ 0.2 |
| YYYN | ≤ 0.2 |
| WPHF | ≤ 0.2 |
| RANP | ≤ 0.2 |
| TPYT | ≤ 0.2 |
| ERTV | ≤ 0.2 |
| SMAY | ≤ 0.2 |
| ECGT | ≤ 0.2 |
| CRGT | ≤ 0.2 |
| PNTV | ≤ 0.2 |
| EARC | ≤ 0.2 |
| DEPY | ≤ 0.2 |
| NVWS | ≤ 0.2 |
| SAYN | ≤ 0.2 |
| FPYD | ≤ 0.2 |
| EMCF | ≤ 0.2 |
| PFRH | ≤ 0.2 |
| RGPR | 0.216 |
| FGAA | ≤ 0.2 |
| PKRH | ≤ 0.2 |
| RRCH | 0.382 |
| GINA | ≤ 0.2 |
| IWSK | ≤ 0.2 |

| Variant | one-hybrid fitness for binding NBS DNA |
| --- | --- |
| GARW | ≤ 0.2 |
| AEWH | ≤ 0.2 |
| HPQR | ≤ 0.2 |
| KQKA | ≤ 0.2 |
| ASRE | ≤ 0.2 |
| IRHT | 0.28 |
| IRHP | ≤ 0.2 |
| VDRE | ≤ 0.2 |
| TGIP | ≤ 0.2 |
| GSKR | 0.201 |
| GQLT | ≤ 0.2 |
| SYKQ | ≤ 0.2 |
| CRTS | ≤ 0.2 |
| RTWK | ≤ 0.2 |
| LIYH | ≤ 0.2 |
| KVLR | ≤ 0.2 |
| PDSM | ≤ 0.2 |
| KNTC | ≤ 0.2 |
| LRFF | ≤ 0.2 |
| NPDI | ≤ 0.2 |
| WTYC | ≤ 0.2 |
| TKKT | ≤ 0.2 |
| HRCQ | ≤ 0.2 |
| VMDM | ≤ 0.2 |
| RDPR | ≤ 0.2 |
| WQHG | ≤ 0.2 |

| Variant | one-hybrid fitness for binding NBS DNA |
| --- | --- |
| MSIN | ≤ 0.2 |
| CEKS | ≤ 0.2 |
| PYDI | ≤ 0.2 |
| QWPV | ≤ 0.2 |
| MPIS | ≤ 0.2 |
| VRVC | ≤ 0.2 |
| NATM | ≤ 0.2 |
| DHPM | ≤ 0.2 |
| GPGG | ≤ 0.2 |
| RRQG | 0.377 |
| QFFS | ≤ 0.2 |
| DVTS | ≤ 0.2 |
| WAKM | ≤ 0.2 |
| KYHP | ≤ 0.2 |
| RAGL | ≤ 0.2 |
| YPAG | ≤ 0.2 |
| AQEC | ≤ 0.2 |
| PACL | ≤ 0.2 |
| GPSG | ≤ 0.2 |
| TSSS | ≤ 0.2 |
| RTMA | ≤ 0.2 |
| GLEE | ≤ 0.2 |
| WRRY | ≤ 0.2 |
| LTPT | ≤ 0.2 |
| TYIG | ≤ 0.2 |
| RKSK | ≤ 0.2 |
